The values that follow come from the RNAGym collection of RNA variant scans (doi:10.1093/nar/gkz1192).

The labels stand for the following.
B1: CPEB3 Ribozyme (parent)
chain: UAACAGGGGGCCACAGCAGAAGCGUUCACGUCGCAGCCCCUGUCAGAUUCUGGUGAAUCUGCGAAUUCUGCUGUAUAUCUC

The source gives no read counts; variants with many changes may rest on few reads.

Variants of B1 are the subject of this data set. Kind of data set: self-cleavage, relative activity (ratio to wild type); higher = more cleavage; in vitro, sequencing. Summed up:
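Relative activity was defined as the cleaved/total read fraction for a variant divided by the same fraction for the unmutated ribozyme. CPEB3 self-cleaving ribozyme libraries were made by rounds of error-prone PCR, barcoded, and transcribed in vitro with T7 RNA polymerase for 5 hours at 37°C, and cleavage ran through transcription plus a 15 min DNase I step before EDTA. Illumina sequencing of template-switched reverse transcripts gave the reads, and DNA sequencing mapped the barcodes. Averages come from three batches, using variants with at least 5 reads.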
As for UAACAGGGGGCCACAGCAGAAGCGUUCUCGUCGCAGCCCCUGUCUGAUUCCGGUGAAUCUGCGAAUUCUGCUGUAUAUCUC [A28U A45U U51C], the self-cleavage stood at 0.12.
Take UAACAGGGGGCCACAGCAGAAGCGUUCUCGUCGCAGCCCCUGUCGGAUUCUGGUGAGUCUGCGAAUUCCGCAGUAUAUCUC [A28U A45G A57G U69C U72A]: the self-cleavage was 0.13.
Turning to UAACAGGGGGCCACAGCAGAAGCGUUCUCGUCGCUGCCCCUGUCAGAUUCUGGCGAAUCUGCGAAUUCUGCUGUAUACCUC [A28U A35U U54C U78C], the self-cleavage was found to be 0.12.
For the variant UAACAGGGGGCCACAGCAGAAGCGUUCUCGUCGCAGCCCCUGUCAGUUUCUGGAGAAUCUGCGAAUUCUGCUGUAUAUCUC [A28U A47U U54A], the self-cleavage is 0.13.
On to UAACAGGGGGCCACAGCAGAAGCGUUCUCGUCGCAGCCCCUGUCGGAUUCUGGUGAAUCUGCGAAUUCUGCUGUAUAACUC [A28U A45G U78A], for which the self-cleavage is 0.66.
Next, UAACAGGGGGCCACAGCAGAAGCGUUCUCGUCGCUGCCCCUGUCAGACUCUGGUGAAUCUGCGAAUUCUGCUGUAUAUCUC [A28U A35U U48C]: 0.11; UAACAGGGGGCCACAGCAGAAGCGUUCUCGUCGCAGCCCCUGUCAGGUUCUGGUGAAUCUGCGAAUUCCGCUGUAUAUCCC [A28U A47G U69C U80C]: 0.38.
On to UAACAGGGGGCCACAGCAGAAGCGUUCUCGUCGCAGCCCCUGUCCGAUUCCGGUGAAUCUGCGAAUUCUGGUGUAUAUCUC [A28U A45C U51C C71G], for which the self-cleavage is 0.49.
As for UAACAGGGGGCCACAGCAGAAGCGUUCUCGUCGCAGCCCCUGUCAGGUCCUGGUGAGUCUGCGAAUUCUGCUGCAUAUCUC [A28U A47G U49C A57G U74C], the self-cleavage came out at 0.
With UAACAGGGGGCCACAGCAGAAGCGUUCUCGUCGCUGCCCCUGUCGGAUUCUGGUGAAUCUGCGAAUUCGGCUGUAUAUCUC [A28U A35U A45G U69G], the self-cleavage was determined as 0.16.
Turning to UAACAGGGGGCCACAGCAGAAGCGUUCUCGUCGCAGCCCCUGUCAGAUUCUGGUGGAUCUGCGAAUUCUGCUGUAUACGUC [A28U A56G U78C C79G], the self-cleavage is 0.85.
Then UAACAGGGGGCCACAGCAGAAGCGUUCUCGUCGCAGCCCCUGUCAGAUUCUGGUGUAUCUGCGAAUUCAGCUGUAUAUCUC [A28U A56U U69A], with 0.15; and UAACAGGGGGCCACAGCAGAAGCGUUCUCGUCGCAGCCCCUGUCAGGCUCUGGUGAAUCUGCGAAUUCCGCUGUAUAUCUC [A28U A47G U48C U69C], with 0.11.
Consider UAACAGGGGGCCACAGCAGAAGCGUUCUCGUCGCAGCCCCUGUCAGGUUCUGGUGAAUCUUCGAAUACUGCUGUAUAUCUC [A28U A47G G61U U67A], for which the self-cleavage was 0.16.
Next, UAACAGGGGGCCACAGCAGAAGCGUUCUCGUCGCUGCCCCUGUCGGAUUCUGGUGAAUCCGCGAAUCCUGCUGUAGAUCUC [A28U A35U A45G U60C U67C U76G]: 0.14; UAACAGGGGGCCACAGCAGAAGCGUUCUCGUCGCAGCCCCUGUCAGGUUCUGGUGAAUCUGCGAAUUCUGAUAUAAAUCUC [A28U A47G C71A G73A U76A]: 0.24.
Then UAACAGGGGGCCACAGCAGAAGCGUUCUCGUCGCUGCCCCUGUCAGAUUCUGGUGAAUCUGCGAAUUCUGCUGUAUAACUC [A28U A35U U78A], with 0.3; and UAACAGGGGGCCACAGCAGAAGCGUUCUCGUCGCAGCCCCUGUCAGUUUCUGGUGAAUCUGCGAAUUCUGCCGUAUAUCUC [A28U A47U U72C], with 0.29.
For the variant UAACAGGGGGCCACAGCAGAAGCGUUCUCGUCGCAGCCCCUGUCAGAUUCUGGUGGAUCUGCGAAUUCUGCGGUAUAUCUC [A28U A56G U72G], the self-cleavage worked out at 0.46.
As to UAACAGGGGGCCACAGCAGAAGCGUUCUCGUCGCUGCCCCAGUCAGAUUCUGGCGAAUCUGCGAAUUCUGCUGUAUAUCUC [A28U A35U U41A U54C], the self-cleavage was determined as 0.14.
Next, UAACAGGGGGCCACAGCAGAAGCGUUCUCGUCGCUGCCCAUGUCAGAUUCUGGUGAAUCUGCGAAUUCUGCUGUAUAUCUC [A28U A35U C40A]: 0.19; UAACAGGGGGCCACAGCAGAAGCGUUCUCGUCGCAGCCCCUGUCUGAUUCAGGUGGAUCUGCGAAUUCUGCUGUAUUUCUC [A28U A45U U51A A56G A77U]: 0.13.
Turning to UAACAGGGGGCCACAGCAGAAGCGUUCUCGUCGCUGCCCCUGCCAGAUUCUGGUGAAUCUGCGAAUUCUGCUGUAUAUCUC [A28U A35U U43C], the self-cleavage was 0.16.
Next, UAACAGGGGGCCACAGCAGAAGCGUUCUCGUCGCAGCCCCUGUCAGUUUCUGGUGAAUCCGCGGAUUCUGCUGUAUAUCUC [A28U A47U U60C A64G]: 0.16; UAACAGGGGGCCACAGCAGAAGCGUUCUCGUCGCAGCCCCUGUCAGUCUCUGGUGGAUCUGCGAAUUCUGCUGUAAAUCUC [A28U A47U U48C A56G U76A]: 0.14.
Then UAACAGGGGGCCACAGCAGAAGCGUUCUCGUCGCAGCCCCUGUCAGAUUCUGGUGAGUCUGCGAAUUAUGCUGUAUAUCUC [A28U A57G C68A], with 0.23.
Next, UAACAGGGGGCCACAGCAGAAGCGUUCUCGUCGCAGCCCCUGUCUGAUUCUGGUGAAUCUGCGAAUGCUGCCGUAUAAUUC [A28U A45U U67G U72C U78A C79U]: 0.15; UAACAGGGGGCCACAGCAGAAGCGUUCUCGUCGCAGCCCCUGUCAGGUUCUGGUGAAUCUGCGAAUUCUGCCGUAUGUCUC [A28U A47G U72C A77G]: 0.92; UAACAGGGGGCCACAGCAGAAGCGUUCUCGUCGCUGCCCCUGUCAGAUUCUGGUGAAUCUGCGAAUUCUGCUGAAUAUCUC [A28U A35U U74A]: 0.51.
Consider UAACAGGGGGCCACAGCAGAAGCGUUCUCGUCGCUGCCCCCGUCAGAUUCUGGUGGAUCCGCGAGUCCUGCUGUAUAUCUC [A28U A35U U41C A56G U60C A65G U67C], for which the self-cleavage was determined as 0.06.
Turning to UAACAGGGGGCCACAGCAGAAGCGUUCUCGUCGCAGCCCCUGUCCGAUUCUGGUGUAUCUGCGAAUUCUGCAGUAAAUCUC [A28U A45C A56U U72A U76A], the self-cleavage was found to be 0.14.
For the variant UAACAGGGGGCCACAGCAGAAGCGUUCUCGUCGCAGCCCCUGUCAGGUUCUGGUGAAUCUGCGAAUUCGGCUGUAUAUCUC [A28U A47G U69G], the self-cleavage stood at 0.5.
As for UAACAGGGGGCCACAGCAGAAGCGUUCUCGUCGCAGCCCCUGUCAGAUUCUGGUGAGUCUGCGGAUUCUGCUGUAUAUCUC [A28U A57G A64G], the self-cleavage was 0.29.
UAACAGGGGGCCACAGCAGAAGCGUUCUCGUCGCAGCCCCUGUCAGGUUCUGGUGAAUCUCCGAAUUCUGCUGUAUUUCCC [A28U A47G G61C A77U U80C]: the self-cleavage was 0.24.
